In the assay the test system is NCI-H322M lung. In words: NCI anticancer screen, dose series, 48 h.

Each structure is given as a SMILES string.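 Results reflect a 48-hour exposure of cells in 96-well plates to compound at five concentrations. GI50 marks 50% less growth. At the TGI there is no net growth.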

The results in this text go back to PubChem BioAssay (NCI).

In the case of `CC(=O)Nc1ccc(NC(=O)Nc2cccc(-c3nc(-c4ccc(NC(=O)c5cccnc5)cc4Cl)no3)c2)cc1C(F)(F)F`, the GI50 was 741 nM and the TGI turned out to be 2630 nM.
